Reference: publication PMC4403821
These are yes or no findings as the source states them, for the method shown. For some assays here: Binding seen in cells or lysates may run through a third protein. Some binding calls cover weakened binding; strength is not graded here.

Amino acid sequences for entries named in this document (tags omitted). Residues count along the entry.
UniProt Q98146: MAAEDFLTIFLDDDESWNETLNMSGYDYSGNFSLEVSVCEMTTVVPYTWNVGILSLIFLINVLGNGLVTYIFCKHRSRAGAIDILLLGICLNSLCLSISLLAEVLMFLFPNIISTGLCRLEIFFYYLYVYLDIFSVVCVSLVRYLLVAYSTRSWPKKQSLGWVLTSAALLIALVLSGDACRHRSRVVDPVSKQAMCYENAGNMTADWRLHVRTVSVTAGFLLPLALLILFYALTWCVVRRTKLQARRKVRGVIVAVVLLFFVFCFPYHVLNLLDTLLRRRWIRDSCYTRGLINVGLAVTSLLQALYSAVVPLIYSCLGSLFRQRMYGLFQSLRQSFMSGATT
UniProt P49407: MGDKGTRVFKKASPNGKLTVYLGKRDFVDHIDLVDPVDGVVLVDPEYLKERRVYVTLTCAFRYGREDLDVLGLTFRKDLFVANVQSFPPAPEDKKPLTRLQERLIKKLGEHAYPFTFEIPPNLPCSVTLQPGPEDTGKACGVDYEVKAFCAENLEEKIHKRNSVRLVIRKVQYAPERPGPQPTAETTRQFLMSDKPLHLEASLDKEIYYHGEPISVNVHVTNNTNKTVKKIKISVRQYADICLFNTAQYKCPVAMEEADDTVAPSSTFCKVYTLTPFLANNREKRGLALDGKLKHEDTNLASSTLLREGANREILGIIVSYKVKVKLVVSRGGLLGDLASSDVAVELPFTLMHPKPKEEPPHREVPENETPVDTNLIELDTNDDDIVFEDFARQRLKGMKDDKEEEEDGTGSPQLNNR
UniProt P02778, residues 22-98: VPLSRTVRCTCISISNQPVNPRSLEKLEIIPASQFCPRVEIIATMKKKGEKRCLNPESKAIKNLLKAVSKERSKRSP

How the values were obtained:
[1] = target: ORF74-Rluc8 (Kaposi's sarcoma-associated herpesvirus (KSHV)) (UniProt Q98146); assay: FRET or BRET; saturation BRET without agonist (basal): constant ORF74-Rluc8 donor DNA with increasing β-arrestin1/2-eYFP acceptor DNA in HEK293T
[2] = target: ORF74-Rluc8 (Kaposi's sarcoma-associated herpesvirus (KSHV)) (UniProt Q98146); assay: condition: only stimulated with CXCL10 alone, no agonist; FRET or BRET; HEK293T co-expressing ORF74-Rluc8 and β-arrestin1/2-eYFP, stimulated with increasing concentrations of CXCL10 alone, 10 min at 37°C, then 5 μM coelenterazine-h 5 min
[3] = target: ORF74-Rluc8 (Kaposi's sarcoma-associated herpesvirus (KSHV)) (UniProt Q98146); assay: FRET or BRET; HEK293T co-expressing ORF74-Rluc8 (WT or mutant, donor) and β-arrestin1/2-eYFP (acceptor), DNA 1:4; stimulated with the agonists CXCL1 or CXCL8 (increasing concentrations or 300 nM CXCL1) 10 min at 37°C, then 5 μM coelenterazine-h 5 min; HBSS with 0.1% BSA
[4] = target: ORF74-Rluc8 (Kaposi's sarcoma-associated herpesvirus (KSHV)) (UniProt Q98146); assay: radioligand binding; whole transfected HEK293T cells, 100 pM ^125I-CXCL10 with increasing unlabeled CXCL10, 3h at 4°C, 50 mM HEPES pH 7.4, 1 mM CaCl2, 5 mM MgCl2, 0.5% BSA; washes with 0.5 M NaCl; Ki from IC50 by Cheng and Prusoff; only the binder purified
[5] = target: WT-ORF74 (Kaposi's sarcoma-associated herpesvirus (KSHV)) (UniProt Q98146); assay: as above

Row | Substance | binding [1] | binding [2] | binding [3] | binding [4] | binding [5]
1 | β-arrestin1-eYFP (from UniProt P49407 1-418) | no binding (condition: without agonist (basal)) | no binding | binds | – | –
2 | β-arrestin2-eYFP (from UniProt P32121 1-409) | no binding (condition: without agonist (basal)) | no binding | binds | – | –
3 | ^125I-CXCL10 (from UniProt P02778 22-98) (ligand) | – | – | – | binds | binds
